The values that follow come from a collection of fitness landscapes (doi:10.1016/j.celrep.2020.107928).

Whole data set: some 81,000 sequences, median “one-hybrid fitness for binding NBS DNA” near -0.1, cut for the highest 2% near 0.36. This is one part of the list.

The chains are these.
B1: Caulobacter ParB omega fusion; a variant is named by its letters at X, in order, B8GW30 (parent)
chain: MESVVVGEPGMSEGRRGLGRGLSALLGEVDAAPAQAPGEQLGGSREAPIEILQRNPDQPRRTFREEDLEDLSNSIREKGVLQPILVRPSPDTAGEYQIVAGERAWRAAQRAGLKTVPIMVRELDDLAVLEIGIIENVQRADLNVLEEALSYKVLMEKFERTQENIAQTIGKSXSHVANXMRLLXLPDEVQSYLVSGELTAXHARAIAAAADPVALAKQIIEGGLSVRETEALARKAPNLSAGKSKGGRPPRVKDTDTQALESDLSSVLGLDVSIDHRGSTGTLTITYATLEQLDDLCNRLTRGI

This experiment covers variants of B1. Put plainly: one-hybrid fitness for binding NBS DNA (the Noc-binding site; scaled: cognate 1, non-cognate 0); higher = stronger binding. Particulars: with NBS DNA site. Summed up:
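On M9-minus-histidine containing 0.1 mM IPTG and 5 mM 3-AT, E. coli USO cells with a HIS3 reporter, site 19 bp from the promoter, grew 48 hours at 37°C to select Caulobacter ParB libraries randomised at four specificity codons. Plasmids from before and after were Illumina-sequenced, with three replicate libraries pooled and variants under 10 reads left out. Fitness is the log change in variant-to-wild-type read ratio, rescaled against cognate and non-cognate.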
Take AINT: the “one-hybrid fitness for binding NBS DNA” value was no more than 0.2.
Under KHAG stands no more than 0.2; under SSPE, no more than 0.2.
As to LAWG, the “one-hybrid fitness for binding NBS DNA” value was no more than 0.2.
Under HEAE stands no more than 0.2; under YILQ, no more than 0.2; under QLWL, no more than 0.2.
As for RGPD, the “one-hybrid fitness for binding NBS DNA” value is no more than 0.2.
Under QLLM stands no more than 0.2.
Take VDTR: the “one-hybrid fitness for binding NBS DNA” value was no more than 0.2.
Consider ACVV, for which the “one-hybrid fitness for binding NBS DNA” value was no more than 0.2.
FFSG: the “one-hybrid fitness for binding NBS DNA” value was no more than 0.2.
Then HEDV, with no more than 0.2; and QHGR, with 0.546; and TAQY, with no more than 0.2.
Then HVYD, with no more than 0.2; and ARRK, with no more than 0.2.
Under IANI stands no more than 0.2.
On to EHGS, for which the “one-hybrid fitness for binding NBS DNA” value is no more than 0.2.
On to AAFV, for which the “one-hybrid fitness for binding NBS DNA” value was no more than 0.2.
Then ESTR, with no more than 0.2; and RWEE, with no more than 0.2; and ENAL, with no more than 0.2.
On to MQLS, for which the “one-hybrid fitness for binding NBS DNA” value is no more than 0.2.
Regarding NVSE, the “one-hybrid fitness for binding NBS DNA” value is no more than 0.2.
Under FSTV stands no more than 0.2; under LAPN, no more than 0.2.
For the variant YQTG, the “one-hybrid fitness for binding NBS DNA” value is no more than 0.2.
Then YNMT, with no more than 0.2; and WISV, with no more than 0.2; and DNPF, with no more than 0.2.
Consider RMHY, for which the “one-hybrid fitness for binding NBS DNA” value was no more than 0.2.
As to LSIS, the “one-hybrid fitness for binding NBS DNA” value was no more than 0.2.
Under WKIM stands no more than 0.2; under AGFA, no more than 0.2.
Turning to DKSS, the “one-hybrid fitness for binding NBS DNA” value is no more than 0.2.
With RQRS, the “one-hybrid fitness for binding NBS DNA” value is 0.6.
As for GHPD, the “one-hybrid fitness for binding NBS DNA” value is no more than 0.2.
As to KRQI, the “one-hybrid fitness for binding NBS DNA” value is no more than 0.2.
For FTKS, the “one-hybrid fitness for binding NBS DNA” value was no more than 0.2.
Under DDWY stands no more than 0.2; under VFHC, no more than 0.2; under RIYM, no more than 0.2.
Then NWPF, with no more than 0.2.
Under NLTL stands no more than 0.2.
On to ASLT, for which the “one-hybrid fitness for binding NBS DNA” value was no more than 0.2.
With GAQC, the “one-hybrid fitness for binding NBS DNA” value is no more than 0.2.
GLTF: the “one-hybrid fitness for binding NBS DNA” value was no more than 0.2.
Under RICW stands no more than 0.2; under RHMR, 0.368.
YCKT: the “one-hybrid fitness for binding NBS DNA” value was no more than 0.2.
In the case of EEKR, the “one-hybrid fitness for binding NBS DNA” value is no more than 0.2.
Take RVVC: the “one-hybrid fitness for binding NBS DNA” value is no more than 0.2.
Under TKRM stands no more than 0.2; under RIPK, no more than 0.2; under QDAY, no more than 0.2.
Then YPWT, with no more than 0.2; and RMGG, with no more than 0.2; and KLLL, with no more than 0.2.
For the variant MQIT, the “one-hybrid fitness for binding NBS DNA” value is no more than 0.2.
Then VRGS, with no more than 0.2.
Then QNYG, with no more than 0.2.
Regarding LIIH, the “one-hybrid fitness for binding NBS DNA” value is no more than 0.2.
Under SFHS stands no more than 0.2.
Under RSKA stands 0.343.
Under GPWR stands no more than 0.2.
DSLV: the “one-hybrid fitness for binding NBS DNA” value was no more than 0.2.
For CNPG, the “one-hybrid fitness for binding NBS DNA” value is no more than 0.2.
On to PPKT, for which the “one-hybrid fitness for binding NBS DNA” value is no more than 0.2.
PHPT: the “one-hybrid fitness for binding NBS DNA” value was no more than 0.2.
Under GTMC stands no more than 0.2; under QEVD, no more than 0.2; under TTWI, no more than 0.2.
With FHFL, the “one-hybrid fitness for binding NBS DNA” value is no more than 0.2.
Then REVG, with no more than 0.2; and DAND, with no more than 0.2; and FCFS, with no more than 0.2.
In the case of TQDG, the “one-hybrid fitness for binding NBS DNA” value was no more than 0.2.
For the variant HVPE, the “one-hybrid fitness for binding NBS DNA” value is no more than 0.2.
In the case of KVHT, the “one-hybrid fitness for binding NBS DNA” value is no more than 0.2.
Then LFER, with no more than 0.2.
Then ACRV, with no more than 0.2; and CKAR, with no more than 0.2.
Then TFHQ, with no more than 0.2; and GWIP, with no more than 0.2.
With CRKC, the “one-hybrid fitness for binding NBS DNA” value is no more than 0.2.
Regarding SIIL, the “one-hybrid fitness for binding NBS DNA” value was no more than 0.2.
Regarding QQAF, the “one-hybrid fitness for binding NBS DNA” value is no more than 0.2.
For CDRR, the “one-hybrid fitness for binding NBS DNA” value is no more than 0.2.
With CPLQ, the “one-hybrid fitness for binding NBS DNA” value was no more than 0.2.
Turning to LDPS, the “one-hybrid fitness for binding NBS DNA” value is no more than 0.2.
Then PLKH, with no more than 0.2; and GAVW, with no more than 0.2.
Under WTPG stands no more than 0.2; under RCNM, no more than 0.2.
DYKT: the “one-hybrid fitness for binding NBS DNA” value is no more than 0.2.
Then QYHF, with no more than 0.2.
